Data from PubChem BioAssay AID624296 (National Center for Advancing Translational Sciences (NCATS), 2012).
Several values for one entry are separate records, joined by “and”; a condition that tells them apart may be missing. Identical values can stand only once. About 9,900 (2.8%) of roughly 350,000 compounds were called active. The inconclusive results got no clear call from the source; some entries with a clear call stand among them for comparison. Calls follow the shape of the dose curve; as a rule, active = well fitted activation curve with a large enough effect; inconclusive = small, poorly fitted or top-dose-only effect; inactive = no such curve, though single readings can be large or run the other way. Potencies beside an inconclusive call are fits to weak or partial responses and may not hold up.

assay: A quantitative high throughput screen for small molecules that induce DNA re-replication in MCF 10a normal breast cells.; also: nearly all actives have a fitted effect of over 50% in size; as to activity, positive = re-replication: % of control where 0% means no effect; conditions: MCF 10A DNA re-replication, Hoechst nuclear intensity, 48 h; activity, positive = re-replication: at 46.1 µM (top of the series)
Potency is read from the fitted curve at half-maximal effect; tags tell the direction and shape of the fitted curve.

Row | Structure (SMILES) | Potency | activity, positive = re-replication
1 | COc1ccccc1NC(=O)c1cc(N)cc(C(=O)Nc2ccccc2OC)c1 | inactive | 
2 | Cc1cccc(C)c1NC(=O)COC(=O)c1c2c(nc3ccccc13)/C(=C\c1ccc3c(c1)OCO3)CCC2 | inconclusive: 25.9 µM [activator, single point] and inconclusive: 5.17 µM [activator, full curve, poor fit] | 
3 | COc1ccc2cc3cc(C(=O)NCc4cccs4)oc3nc2c1 | inconclusive: 3.26 µM [activator, full curve] | 
4 | C=CCNc1ncnc2c1[nH]c1ccccc12 | inactive | 
5 | Cc1nc(-c2cccc(NC(=O)c3cccc(S(=O)(=O)N4CCCC4)c3)c2)cs1 | inactive | 
6 | Cc1ccnc(NC(=O)CNC(=O)Cc2cccc3ccccc23)c1 | inactive | 
7 | CC(=O)c1cccc(NC(=O)CSCc2ccc(Br)cc2)c1 | inactive | 
8 | Cc1ccc(S(=O)(=O)N2CCCCC2CCNC(=O)C(=O)NCc2ccccc2)cc1 (stereo not given) | inconclusive: 4.11 µM [activator, single point] | 
9 | COc1ccc(Nc2nc(N3CCCC3)c3ccccc3n2)cc1 | inconclusive: 23.1 µM [activator, single point] | 
10 | Cc1cc(NCC2CCCCC2)nc2ccccc12 | active: 25.9 µM | 
11 | CCOC(=O)c1nn(-c2ccccc2C)c2nc(-c3ccc(Cl)cc3)c(C#N)c(=O)n12 | inactive | 
12 | O=C(CCCNC(=O)c1ccc(Cl)cc1)NCc1ccccc1F | inactive | 
13 | C=CCOC(=O)C1=C(C)Nc2ncnn2C1c1cc(Br)ccc1F (stereo not given) | inconclusive: 16.4 µM [activator, single point] | 
14 | NS(=O)(=O)c1ccc(NC(=O)c2cc(-c3cccs3)nc3ccccc23)cc1 | inconclusive: 29.1 µM [activator, single point] | 
15 | CC(C(=O)N1CCN(Cc2ccc3c(c2)OCO3)CC1)n1cc([N+](=O)[O-])cn1 (stereo not given) | inactive | 
16 | COCCCNC(=O)Cc1c(C)c2c(cc(C)c3c(C(C)(C)C)coc32)oc1=O | inconclusive: 1.84 µM [activator, full curve, poor fit] | 
17 | O=C(O)c1ccc(CNC(=O)C2CCCN2C(=O)OCc2ccccc2)cc1 (stereo not given) | inactive | 
18 | O=S(=O)(c1ccccc1)c1nc(-c2ccccc2F)oc1NCc1cccnc1 | inactive | 
19 | Cc1nc2ccc(NC(=O)c3cc([N+](=O)[O-])cc([N+](=O)[O-])c3Cl)cc2s1 | inconclusive: 5.8 µM [activator, full curve] | 
20 | COc1ccc(COc2cc(-c3cccc(OC)c3)nc3ccc(N)cc23)cc1 | active: 0.731 µM | 
21 | COC(=O)c1ccc(NCc2cc(O)ccc2O)cc1 | inconclusive: 4.61 µM [activator, full curve] | 
22 | Cc1cccc(NC(=O)c2cc(-c3cccnc3)nc3c(C)cccc23)n1 | active: 16.4 µM | 
23 | COc1ccc2nc(NC(=O)C3=NN(c4ccccc4)C(=O)CC3)sc2c1 | inconclusive: 11.6 µM [activator, partial curve, poor fit] | 
24 | COc1ccc(N2C(=O)N3[C@@H]4c5ccccc5OC[C@@H]4[C@@H](c4ccccc4)[C@@]3(C)C2=O)cc1 | inactive | 

Row | Structure (SMILES) | Potency | activity, positive = re-replication
25 | N/C(=N\NC(=O)Nc1ccccc1)c1ccccn1 | inconclusive: 6.51 µM [activator, partial curve, poor fit] | 
26 | COc1ccc(NC(=S)N2CCN(S(=O)(=O)c3ccc(F)cc3)CC2)cc1 | inactive | 
27 | COc1ccc(SN=C2C(C)=CC(=O)C=C2C)cc1 | active: 25.9 µM | 
28 | O=C1CSC(=Nc2ccc(Cl)cc2)N1Cc1cccnc1 | inconclusive: 6.51 µM [activator, single point] | 
29 | Cc1cc(C(=O)NNc2ccc(F)cc2F)no1 | inconclusive: 9.2 µM [activator, partial curve, poor fit] | 
30 | CCCCn1c(N)c(N(CCOC)C(=O)COC(=O)COc2cccc(C(C)=O)c2)c(=O)[nH]c1=O | inactive | 
31 | CCOC(=O)C1(CCc2ccccc2)CCN(Cc2c(O)cccc2OC)CC1 | inconclusive: 29.1 µM [activator, single point] | 
32 | CC(C)CNC(=S)N1CCN(C)CC1 | inconclusive: 0.0116 µM [activator, partial curve, poor fit] | 
33 | Nc1cccc(-c2nc3ccc(C(=O)c4ccccc4)cc3[nH]2)c1 | inconclusive: 2.06 µM [activator, partial curve, poor fit] | 
34 | N=c1c(C(=O)NC2CCCCC2)cc2c(=O)n3ccccc3nc2n1Cc1ccccc1 | active: 2.59 µM | 
35 | O=C(CN(C(=O)CCC(=O)Nc1ccccn1)c1ccc(F)cc1)NCCc1ccccc1 | inactive | 
36 | N#CCCn1c(C(C#N)(CCC#N)CCC#N)nc2ccccc21 | inconclusive: 2.91 µM [activator, single point] | 
37 | O=C(c1ccc(Br)o1)N(Cc1ccccc1)Cc1ccccc1 | inconclusive: 32.6 µM [activator, single point] | 
38 | CCCC[C@@H]1CCCO[C@@](C(=O)NCc2ccccn2)(C(F)(F)F)C1 | inconclusive: 9.2 µM [activator, partial curve, poor fit] | 
39 | c1ccc2cc(CNCc3cccc4ccccc34)ccc2c1 | inconclusive: 29.1 µM [activator, single point] | 
40 | CC1(c2cccc([N+](=O)[O-])c2)CC(C)(C)N(C(=O)c2ccccc2)c2ccccc21 (stereo not given) | inconclusive: 1.46 µM [activator, partial curve, poor fit] | 
41 | COc1ccc(C(=O)NC(C(=O)NCC2(N3CCCCC3)CCCCC2)C(C)C)cc1 (stereo not given) | inconclusive: 25.9 µM [activator, single point] | 
42 | C=C1C(=O)OC2C=C(CO)C3OC3C3OC3(C)CC(OC(=O)/C(=C/C)COC(C)=O)C12 (stereo not given) | active: 2.06 µM | 
43 | Cc1cccc(C)c1N1CCN(S(=O)(=O)N2CCCCC2)CC1 | inconclusive: 18.4 µM [activator, single point] | 
44 | O=C(N/N=C/c1ccccc1O)c1cc[n+]([O-])cc1 | inconclusive: 25.9 µM [activator, partial curve, poor fit] | 
45 | CCN(CC(=O)NCc1ccc(F)cc1)C(=O)c1cccnc1SC | inactive | 
46 | O=C(CNC(=O)c1ccc2c(c1)OCO2)N/N=C(Br)/C=C/c1ccccc1 | active: 9.2 µM | 
47 | Cc1ccc(OCC(=O)N(Cc2ccccc2)c2ccccn2)cc1 |  | inactive: -3.03% [at 9.22 µM]
48 | CN(c1nc(-c2ccc(Br)cc2)cs1)C1CCS(=O)(=O)C1 (stereo not given) | inactive | 

Row | Structure (SMILES) | Potency | activity, positive = re-replication
49 | Cc1ccc(S(=O)(=O)N(C)C)cc1NC(=O)c1cncc(Br)c1 | inconclusive: 23.1 µM [activator, single point] | 
50 | CN(C)CCCN(C(=O)C1COc2ccccc2O1)c1nc2ccc(F)cc2s1 (stereo not given) | inactive | 
51 | CCCCn1c(-c2csc3ccccc23)n[nH]c1=S | inactive | 
52 | CCc1ccc(C(C)NC(=O)/C(C#N)=C\c2cn[nH]c2-c2ccccc2)cc1 (stereo not given) | inconclusive: 16.4 µM [activator, partial curve, poor fit] | 
53 | CC(C)c1ccc(C2NC(=S)NC3=C2C(=O)CCC3)cc1 (stereo not given) | inactive | 
54 | CC(C)CC(=O)Nc1ccc(C(=O)NNC(=O)C(c2ccccc2)c2ccccc2)cc1 | inconclusive: 13 µM [activator, partial curve, poor fit] | 
55 | COC(=O)c1sc(N)c(C(=O)OC)c1Cn1ncc(Cl)c(Cl)c1=O | inconclusive: 18.4 µM [activator, partial curve, poor fit] | 
56 | COc1cccc(CNC(=O)CN(C)S(=O)(=O)c2cccc3cccnc23)c1 | inactive | 
57 | c1ccc(Nc2cc(-c3ccccc3)nc3ncnn23)cc1 | inconclusive: 14.6 µM [activator, partial curve, poor fit] | 
58 | Cn1c(Sc2ccc(Cl)cc2)c(C=O)c2ccccc21 | inconclusive: 25.9 µM [activator, single point] | 
59 | CCOc1cc(C2C3=C(CCCC3=O)Nc3ccc4ncccc4c32)ccc1O (stereo not given) | inconclusive: 8.2 µM [activator, partial curve, poor fit] | 
60 | CNC(=O)COC(=O)CCC(=O)c1cccs1 | inconclusive: 1.16 µM [activator, partial curve, poor fit] | 
61 | COc1ccc(N/C(=N\c2nc(C)cc(C)n2)NC(C)=O)cc1OC | inactive | 
62 | CC(C)(C)OC(=O)N1C[C@H](O)C[C@H]1C(=O)OCC(=O)c1ccc([N+](=O)[O-])cc1 | inconclusive: 20.6 µM [activator, partial curve, poor fit] | 
63 | Cc1cccc(N(CC(=O)N2CCN(c3ccccc3F)CC2)S(C)(=O)=O)c1 | inactive | 
64 | Cc1cccc(COCC(Cc2ccccc2)N2CCN(C(=O)c3cccc(C)c3)CCC2=O)c1 (stereo not given) | inconclusive: 20.6 µM [activator, partial curve, poor fit] | 
65 | COc1cccc(Nc2nc(-c3cccs3)nc3ccccc23)c1 | inconclusive: 29.1 µM [activator, single point] | 
66 | Cc1ccccc1-c1ncc(CN2CCN(C3CCCCC3)C(CCO)C2)cn1 (stereo not given) | inactive | 
67 | C=CCN(CC=C)C(=S)NC(=O)c1ccc(-c2ccccc2)cc1 | inconclusive: 2.59 µM [activator, full curve, poor fit] | 
68 | O=[N+]([O-])c1cccc(CN2C[C@@]34C=C[C@@H](C[C@@H]3S2(=O)=O)O4)c1 | inconclusive: 0.0731 µM [activator, full curve, poor fit] | 
69 | COc1ccc(Cn2nnnc2CN2CCc3ccccc3C2)cc1 | inactive | 
70 | O=C(O)C1CCCN1C(=O)Nc1ccc(Cl)cc1 (stereo not given) | inconclusive: 20.6 µM [activator, partial curve, poor fit] | 
